Read counts are not given, so values of variants with three or more changes are uncertain.
B1: LINE1-full (parent)
chain: UACGUAGGUGGUUUUCCCCUGAUAGUGCUAAGGGGGCCUGGAAGUUUGGACUGGGCAGAGCUCAACACAGCGUGGCAAAGUGGCUGUGGCUAGACUGCCUCUCUGGAUUCCUCGUCACUCAGCAGGGCAUCUCUGAGAGAAAUGCC

Variants of: B1
Assay: self-cleavage, relative activity (ratio to wild type); higher = more cleavage; in vitro, sequencing; the parent is a self-cleaving ribozyme

| Variant | self-cleavage |
| --- | --- |
| G53U U62C C131U | 0.05 |
| G54A A59G A77U A124G | 0 |
| G54A A59U A140G | 0.29 |
| G54A A67U U81C | 0.05 |
| G54A A69U G70C A78G | 0.02 |
| G54A A77U U119C | 1.04 |
| G54A A79G U130C | 0.43 |
| G54A A107U A129G A140G | 0.82 |
| G54A C98U G135A A140G | 0.36 |
| G54A U62C A141U | 0.01 |
| G54A U62C U104C U119C | 0.1 |
| G54A U73C U115C A142G | 2.49 |
| G54A U81C U108A U119C A124U | 0.32 |
| G54A U96C U115C | 0.06 |
| G54A U104A G126A U134C | 0.36 |
| G54A U109C A117G | 0.27 |
| G54A U130C A138G | 1.93 |
| G54C A65G U119C | 0 |
| G54C U109A A138G U143C | 0.28 |
| G54U A59G U100C U115C | 0.25 |
| G54U A64G A78G | 0 |
| G54U A77G A78G | 0.39 |
| G54U U81A U119C U130C | 2.14 |
| G54U U96A A117U A136G A141G U143C | 0.06 |

| Variant | self-cleavage |
| --- | --- |
| G55A A121G A141G | 0.22 |
| G55A A140G A142G | 0.17 |
| G55A G86A A129U A138G | 0.04 |
| G55A G127C A141G | 0.44 |
| G55A U73C U87A A94U U115A | 0.02 |
| G55A U85A U102C U108C | 0.02 |
| G55A U85C U143C | 0.02 |
| G55A U102A A117G | 1.1 |
| G55A U108C C113U | 0.28 |
| G55C A65G A138G | 0.03 |
| G55C C71U A92G | 0.04 |
| G55C U87A A142G | 0.02 |
| G55U A69U A138G | 0.07 |
| G55U C120U A138G | 1.43 |
| G55U U62C U134C | 0.01 |
| G55U U96C U119A | 0 |
| C56A U73C U108C | 0.12 |
| C56A U96G A140G | 0.04 |
| C56A U104A A129G A136G U143C | 0.04 |
| C56U A57C A69G U102A U109C U130C | 0 |
| C56U A57C U62A A79U U87A A92U A121U | 0.06 |
| C56U A57G U109C | 0 |
| C56U A57U A65G U109A | 0.07 |
| C56U A65G U100C | 0.06 |

| Variant | self-cleavage |
| --- | --- |
| C56U A69G U104C | 0.07 |
| C56U C63U U132A A142G | 0.05 |
| C56U U87C U112A | 0.02 |
| C56U U100C A142G | 0.66 |
| C56U U109C U115C A121G U134C | 0 |
| A57C A92U U96A | 0.02 |
| A57C A129U U134A | 0.07 |
| A57C U62A C103A | 0.11 |
| A57C U62A G86A A136G | 0.18 |
| A57C U85A A124G | 0.14 |
| A57C U87G U134C | 0 |
| A57C U102C U108C | 0 |
| A57C U109A U119A | 0.02 |
| A57C U109C U130C A136U | 0 |
| A57G A59G A79G | 0.85 |
| A57G A59G U108C | 0.26 |
| A57G A59G U115A A138G | 0 |
| A57G A59G U115C | 0 |
| A57G A59U U109C A124U A138G | 0 |
| A57G A64G U134C A141G | 0 |
| A57G A64U A140G | 0.15 |
| A57G A67G A69U | 0 |
| A57G A69C U132C A138U | 0 |
| A57G A69G A78G U132C | 0 |

| Variant | self-cleavage |
| --- | --- |
| A57G A69G C99U A141G | 0.06 |
| A57G A69G G106A | 0.3 |
| A57G A69U A77C | 0 |
| A57G A77U G86A A117U | 0.04 |
| A57G A77U U134C | 0.75 |
| A57G A78G C120U | 1.38 |
| A57G A78G U115C | 2.12 |
| A57G A78U A124G | 0.6 |
| A57G A79G U132C | 1.99 |
| A57G A92G U119C | 0.67 |
| A57G A94G U96C C103A U143A | 0.21 |
| A57G A138G A141G | 1.65 |
| A57G C68U A121G | 0.07 |
| A57G C71A A78U A140G | 0.03 |
| A57G C71G A78U U81C A142G | 0.08 |
| A57G C71U U96A | 0.04 |
| A57G C76G G83A A94G A124G | 0.09 |
| A57G C84U U96C | 0.3 |
| A57G C131U U132C | 0.51 |
| A57G G70A A121G A140G | 0.11 |
| A57G G75A C128U | 0.6 |
| A57G G86A U102A U143C | 0.03 |
| A57G G86A U108C A121C A140G | 0.07 |
| A57G G88A G114A U130C | 0.03 |

| Variant | self-cleavage |
| --- | --- |
| A57G U62A A77G U112C | 0 |
| A57G U62A A77U U112C | 0.09 |
| A57G U62A U73A | 0.02 |
| A57G U62C A124G | 0.27 |
| A57G U62C A136G | 0.02 |
| A57G U62C U108C | 0.5 |
| A57G U81A A138G | 1.93 |
| A57G U81C U119A | 1.41 |
| A57G U85A U96G A121U A124G | 0.19 |
| A57G U85C A124G | 0 |
| A57G U85C U130A | 0 |
| A57G U85G A141G | 0.14 |
| A57G U87A U96C | 0.25 |
| A57G U87C C103U | 0.06 |
| A57G U100G U109A A117C U119A | 1.38 |
| A57G U108C U134C | 2.63 |
| A57G U108C U143A | 1.28 |
| A57G U112C G127U | 0.47 |
| A57G U115A A124U A141G | 0.88 |
| A57G U119C A129G | 2.7 |
| A57G U130C A138U | 1.41 |
| A57U A59C A138U | 0.14 |
| A57U A59G A94G | 0 |
| A57U A59G A121U | 0.06 |

| Variant | self-cleavage |
| --- | --- |
| A57U A59G C76U U134A | 0.04 |
| A57U A59G G106U A117U A142U | 0.08 |
| A57U A65G A79U A129G | 0.06 |
| A57U A67G U109C | 0.07 |
| A57U A67U U96C A138G | 0.02 |
| A57U A69U U73G | 0.02 |
| A57U A77U A107G A142U | 0.1 |
| A57U A78G U81C U104A | 0 |
| A57U A78G U100C A136G | 0.66 |
| A57U A78G U112A A138G | 0.02 |
| A57U A79G U104A U134C | 0.09 |
| A57U A92U A141G | 0.06 |
| A57U A94G A142G | 0.45 |
| A57U A107G U143C | 0.1 |
| A57U A121G A136G | 0.16 |
| A57U A136G A138U | 0.14 |
| A57U C63A A138G | 0.04 |
| A57U C63U C76U A79G | 0.06 |
| A57U C76U U132C | 0.09 |
| A57U G60A U85C A141U | 0 |
| A57U G74A A117G A136G | 0.11 |
| A57U G74U A92G U100A | 0.06 |
| A57U G86A A141G | 0.04 |
| A57U U62A A67G U96A | 0 |

| Variant | self-cleavage |
| --- | --- |
| A57U U62A A140G | 0.04 |
| A57U U62C U73A A107G U143C | 0 |
| A57U U73A U87C A141G | 0.01 |
| A57U U73A U104A | 0.05 |
| A57U U73C A121G | 0.26 |
| A57U U81C A107G U119C | 0 |
| A57U U81C U119C | 0.06 |
| A57U U81C U134A | 0.1 |
| A57U U81C U134A U143C | 0.11 |
| A57U U85A A94G U132G A140G | 0 |
| A57U U85A U134A A141G | 0 |
| A57U U87A A140G A142U | 0.07 |
| A57U U87C A94G C128A | 0.04 |
| A57U U87G A117G | 0.04 |
| A57U U91A U143C | 0.05 |
| A57U U96C U132C | 0.04 |
| A57U U100A A121G | 0 |
| A57U U100C A140G | 0.34 |
| A57U U102A A121G A124G A141G | 0 |
| A57U U102C A142G | 0 |
| A57U U102C C116U U119G U130G A136G | 0 |
| A57U U104A A138G | 0.05 |
| A57U U104A U132A U134A A141G | 0.04 |
